This passage reports self-cleavage results from the RNAGym collection of RNA variant scans (doi:10.1093/nar/gkz1192).

Sequences and labels used below:
B1: CPEB3 Ribozyme (parent)
chain: UAACAGGGGGCCACAGCAGAAGCGUUCACGUCGCAGCCCCUGUCAGAUUCUGGUGAAUCUGCGAAUUCUGCUGUAUAUCUC

Read counts are not given, so values of variants with three or more changes are uncertain.

Variants of B1 are the subject of this data set. Description: self-cleavage, relative activity (ratio to wild type); higher = more cleavage; in vitro, sequencing. The gist of the method: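 Libraries of CPEB3 self-cleaving ribozyme mutants came from rounds of error-prone PCR and carried barcodes, which DNA sequencing matched to variants. In vitro transcription used T7 RNA polymerase at 37°C for 5 hours, with a further 15 min in DNase I before EDTA stopped the reaction; the ribozymes cleaved during both steps. The RNA was reverse transcribed with template switching and sequenced on Illumina. Relative activity is the cleaved/total read fraction of a variant divided by that of the unmutated ribozyme, averaged over three batches with at least 5 reads.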
As to UAACAGGGGGCCACAGCAGAAGCGUUCACGUCGCAGCCCCUGCCAGAUUCUGGUGAAUCUGCGAAUUCCGCUGUAUAUCAC, the self-cleavage was determined as 0.16. As to UAACAGGGGGCCACAGCAGAAGCGUUCACGUCGCAGCCCCUGUUAGAUUCUGGUGUAUCAGCGAAUUCUGCUGUAUAUCUC, the self-cleavage amounted to 0.13. In the case of UAACAGGGGGCCACAGCAGAAGCGUUCACGUCGCAGCCCCUGUAAGAUUCUGGUGAAUCUGCGAACUCUGCUGUAUAUCCC it was 0.21; in that of UAACAGGGGGCCACAGCAGAAGCGUUCACGUCGCAGCCCCUGGCGGAUUCAGGUGAAUCUGCGAAUUCUGCUGUACGUCUC, 0.16. Consider UAACAGGGGGCCACAGCAGAAGCGUUCACGUCGCAGCCCCUGUUAGACUCUGGCGAAUCUGCGAAUUCUGCUGUAUAUCUC, for which the self-cleavage is 0.19.

As for UAACAGGGGGCCACAGCAGAAGCGUUCACGUCGCAGCCCCUGUUAGAUUCUGGUGAAUCUGCGAGCUCUGCUGUAUAUCUC, the self-cleavage came to 0.18. In the case of UAACAGGGGGCCACAGCAGAAGCGUUCACGUCGCAGCCCCUGUUGGGUUCUGGUGAAUCUGCGAAUUCUGCUGUAUAUCUC it was 0.18; in that of UAACAGGGGGCCACAGCAGAAGCGUUCACGUCGCAGCCCCUGCCAGAUUCUGGUGAAACUGCGAAUUCCGCUGUAUAUCUC, 0.13; in that of UAACAGGGGGCCACAGCAGAAGCGUUCACGUCGCAGCCCCUGGCAGACUCUGGUGAACCAGCGAAUUCUGCUGUAUAUCUC, 0.18. As for UAACAGGGGGCCACAGCAGAAGCGUUCACGUCGCAGCCCCUGCCAGAUUCUGGUGAAUCUGCGAACUCUGCUGUAUCUCUC, the self-cleavage is 0.13. Then UAACAGGGGGCCACAGCAGAAGCGUUCACGUCGCAGCCCCUGGCAGAUUCUGGUGAAUCUGCGAAUUCUGCAGUAUACCUC, with 0.13; and UAACAGGGGGCCACAGCAGAAGCGUUCACGUCGCAGCCCCUGUGAGAUUCUGGUGAAACUGCGGAUUCUGCUGUAUAUCUC, with 0.05. Then UAACAGGGGGCCACAGCAGAAGCGUUCACGUCGCAGCCCCUGUGAGAUUCCGGAGAAUCUGCGAAUUCUGCUGUAUAUCUC, with 0.46; and UAACAGGGGGCCACAGCAGAAGCGUUCACGUCGCAGCCCCUGCCAGAUUCUGGUGAAUCUGCGAAUCCUGCUGUGUAUCUC, with 0.1; and UAACAGGGGGCCACAGCAGAAGCGUUCACGUCGCAGCCCCUGGCAGAUUCUGGUGAAUCUGCGAAUUCGGCAGUAUAUCUC, with 0.15.

Turning to UAACAGGGGGCCACAGCAGAAGCGUUCACGUCGCAGCCCCUGUUGGAUUCUGGUGAAUCUGCGAAUUCUGCUGUACAUCUC, the self-cleavage is 0.35. With UAACAGGGGGCCACAGCAGAAGCGUUCACGUCGCAGCCCCUGCCAGAUUCUGGUGAAUCUGCGAAUUCUGCUGGAUUUCUC, the self-cleavage worked out at 0.99.

With UAACAGGGGGCCACAGCAGAAGCGUUCACGUCGCAGCCCCUGUUAGAUUCUGGUGAAUCUGCGAACCCUGCUGUAUAUCUC, the self-cleavage was 0.73. Then UAACAGGGGGCCACAGCAGAAGCGUUCACGUCGCAGCCCCUGUCCGAUUCAGGUGAAUCUGCGAAUUCUGCUGUAAAUCUC, with 0.21.

UAACAGGGGGCCACAGCAGAAGCGUUCACGUCGCAGCCCCUGCCAGAUUCUGGUGAAUCUGCGAAUUCCGCUGUAUAACCC: the self-cleavage was 0.39. Take UAACAGGGGGCCACAGCAGAAGCGUUCACGUCGCAGCCCCUGCCAGAUUCUGGUGAACCUGCGAAUUCUGCUGAAUAUCUC: the self-cleavage was 0.16. Consider UAACAGGGGGCCACAGCAGAAGCGUUCACGUCGCAGCCCCUGCCAGAUUCUGGUGAAUCUGCGAAUUCCGCUGUAGACCUC, for which the self-cleavage amounted to 0.13. In the case of UAACAGGGGGCCACAGCAGAAGCGUUCACGUCGCAGCCCCUGUCCGAUUCAGGUGAAUCUGCGAAUUCUGCUGUAUAUCCC it was 0.21; in that of UAACAGGGGGCCACAGCAGAAGCGUUCACGUCGCAGCCCCUGGCAGAUUCCGGUGAAUCUGCGUAUUCUGCUGCAUAUCUC, 0.43.

Regarding UAACAGGGGGCCACAGCAGAAGCGUUCACGUCGCAGCCCCUGGCAGAUUCUGGAGAAUCUGCGAAUUCUGAUGUAUAUCUC, the self-cleavage turned out to be 0.15. Then UAACAGGGGGCCACAGCAGAAGCGUUCACGUCGCAGCCCCUGCCAGAUUCUGGUGAAUCAGCGAAUUCCGCUGUAUACCUC, with 0.09; and UAACAGGGGGCCACAGCAGAAGCGUUCACGUCGCAGCCCCUGGCAGAUUCUGGUGUAUCUGCGAAUCCUGCAGUAUAUCUC, with 0.08. As for UAACAGGGGGCCACAGCAGAAGCGUUCACGUCGCAGCCCCUGUUGGAUCCUGGUGAAUCUGCGUAUUCUGCUGUGUAUCUC, the self-cleavage was found to be 0.05. As to UAACAGGGGGCCACAGCAGAAGCGUUCACGUCGCAGCCCCUGCCAGAUUCUGGUGAAUCCGCGAAUUCAGCUGUAUAUCCC, the self-cleavage worked out at 0.15.

As for UAACAGGGGGCCACAGCAGAAGCGUUCACGUCGCAGCCCCUGCCAGAUUCUGGUGAAUCUGCGAAUUCUGCUGCAUAUCGC, the self-cleavage was 0.74. In the case of UAACAGGGGGCCACAGCAGAAGCGUUCACGUCGCAGCCCCUGUUAGAUUCUGGUGAAUCUGCGAAUUCCGCAGUAUAUCUC, the self-cleavage stood at 0.16. In the case of UAACAGGGGGCCACAGCAGAAGCGUUCACGUCGCAGCCCCUGCCAGAUUCUGGUGAAUCCGGGAACUCUGCUGUAUAUCUC, the self-cleavage worked out at 0.23. In the case of UAACAGGGGGCCACAGCAGAAGCGUUCACGUCGCAGCCCCUGUUAGAUUCUGCCGAAUCUGCGUAUUCUGCUGUAUAUCUC, the self-cleavage amounted to 0.24. In the case of UAACAGGGGGCCACAGCAGAAGCGUUCACGUCGCAGCCCCUGCCAGAUUCUGGUGAACCUGCAAAUUCUGCUGUAUAUCUC it was 0.11. Take UAACAGGGGGCCACAGCAGAAGCGUUCACGUCGCAGCCCCUGCCAGAUUCUGGUGAAUCAGCGAAUUCUGCUGUUUAUCUC: the self-cleavage is 0.18. UAACAGGGGGCCACAGCAGAAGCGUUCACGUCGCAGCCCCUGGCAGAUUCUGGUGAGUCUGCGAAUUCUGCUCUAUAUCUC: the self-cleavage stood at 0.2. Then UAACAGGGGGCCACAGCAGAAGCGUUCACGUCGCAGCCCCUGCCAGAUUCUGGUGAAUCUGCGAACUCCGCUGUAUAUCUC, with 0.11; and UAACAGGGGGCCACAGCAGAAGCGUUCACGUCGCAGCCCCUGCCAGAUUCUGGCGAAUCUGCGAACCCUGCUGUAUAUCUC, with 0.13. Then UAACAGGGGGCCACAGCAGAAGCGUUCACGUCGCAGCCCCUGUCCGAUUCUGGUGAAUCUGCGAGUCCUGCUGUAUAUCCC, with 0.35; and UAACAGGGGGCCACAGCAGAAGCGUUCACGUCGCAGCCCCUGCCAGAUUCUGGUGAAUCUGCGAAUCCUGCUGUAAAUCUC, with 0.23.

In the case of UAACAGGGGGCCACAGCAGAAGCGUUCACGUCGCAGCCCCUGUUAGAUUCUGGCGUACCUGCGAAUUCUGCUGUAUACCUC, the self-cleavage was 0.06. As to UAACAGGGGGCCACAGCAGAAGCGUUCACGUCGCAGCCCCUGUCCGAUUCUGGUGGAUCUGCGAAUUCUGCUGUAUAUCCC, the self-cleavage stood at 0.38.

Turning to UAACAGGGGGCCACAGCAGAAGCGUUCACGUCGCAGCCCCUGUUAGAUUCAGGUGAAUCUGCGAAUUCCGCUGUAUAUCUC, the self-cleavage amounted to 0.15.

Turning to UAACAGGGGGCCACAGCAGAAGCGUUCACGUCGCAGCCCCUGUCCGACUCUGGUGUAUAUGCGAAUUCUGCCGUAUAUCUC, the self-cleavage was 0.18.

For the variant UAACAGGGGGCCACAGCAGAAGCGUUCACGUCGCAGCCCCUGUUAGAUUCUGGUGAAUCCGCGAAUUCUGCUGAAUAUCUC, the self-cleavage is 0.16. UAACAGGGGGCCACAGCAGAAGCGUUCACGUCGCAGCCCCUGUUAGAUUCUGGUGAAUCAGCGAAUCCUGCGGUGUGUCUC: the self-cleavage stood at 0.05.

For UAACAGGGGGCCACAGCAGAAGCGUUCACGUCGCAGCCCCUGUAAGAUUCUGGUGAAUCGGCGAAUUCUGCUGCAUAUCUC, the self-cleavage was determined as 1.04. In the case of UAACAGGGGGCCACAGCAGAAGCGUUCACGUCGCAGCCCCUGUCCGAUUCUGGUGAAUCUGAGGAUUCUGCUGUGUAUCUC, the self-cleavage was found to be 0.1. Take UAACAGGGGGCCACAGCAGAAGCGUUCACGUCGCAGCCCCUGCCAGAUUCUGGUGAAUCUGCGAAUUCUGCCGUAUACCUC: the self-cleavage stood at 0.9.

As for UAACAGGGGGCCACAGCAGAAGCGUUCACGUCGCAGCCCCUGUUAGAUUCCGGUGGAACUGCGAAUUCUGCUGUAUAUCUC, the self-cleavage stood at 0.19. In the case of UAACAGGGGGCCACAGCAGAAGCGUUCACGUCGCAGCCCCUGUCCGAUUCUCGUGAAUCUGCGAAUUCAGCUGUAUAUCUC, the self-cleavage was 0.27. Regarding UAACAGGGGGCCACAGCAGAAGCGUUCACGUCGCAGCCCCUGUAAGAUUCUGGGGAAUCUGCGAAUUCCGCUGUAUAUCUC, the self-cleavage stood at 0.04.

UAACAGGGGGCCACAGCAGAAGCGUUCACGUCGCAGCCCCUGCCAGAUUCUGGUGAAUCCGCGAAUUCUGCUGUACAUCUC: the self-cleavage was determined as 0.46.

With UAACAGGGGGCCACAGCAGAAGCGUUCACGUCGCAGCCCCUGUGAGAUCCUGGUGAAUCUGCGAAUUCUGCCGUAUAUCUC, the self-cleavage turned out to be 0.1. Then UAACAGGGGGCCACAGCAGAAGCGUUCACGUCGCAGCCCCUGUCCGGUUCUGGCGAAUCAGCGAUUUCUGCUGUAUAUCUC, with 0.14; and UAACAGGGGGCCACAGCAGAAGCGUUCACGUCGCAGCCCCUGGCAGAUUCUGGUGAAUCUGCGUAUUCUGCUGUAUAUCCC, with 0.19; and UAACAGGGGGCCACAGCAGAAGCGUUCACGUCGCAGCCCCUGCCAGAUUCUGGUGAAUCUGCGAAAUCUGCAGUAUAUCUC, with 0.09. Then UAACAGGGGGCCACAGCAGAAGCGUUCACGUCGCAGCCCCUGGCAGACUCUGGUGAAUCUGCGGAUCCUGCUGUAUAUCUC, with 0.15; and UAACAGGGGGCCACAGCAGAAGCGUUCACGUCGCAGCCCCUGGUAGAUUCUGGUGAGCCUGCGAAUUCUGCUGUGUAUCUC, with 0.14.

Regarding UAACAGGGGGCCACAGCAGAAGCGUUCACGUCGCAGCCCCUGUAAGAUUCUGGUGAAUCUGCGAAUUCUGCUGGAAAUCUC, the self-cleavage was determined as 0.5. For the variant UAACAGGGGGCCACAGCAGAAGCGUUCACGUCGCAGCCCCUGGCAGAUUCUGGUGAAUCUGCGAACUCUGCCGUAUUUCUC, the self-cleavage was 0.05. In the case of UAACAGGGGGCCACAGCAGAAGCGUUCACGUCGCAGCCCCUGCCAGAUUCUGGCGAAUCUGCGAAUUCUGCCGUAUAUCCC, the self-cleavage stood at 0.63. On to UAACAGGGGGCCACAGCAGAAGCGUUCACGUCGCAGCCCCUGCCAGAUUCUGGUGAAUCCGCGAACUCAGCUGUACAUCUC, for which the self-cleavage is 0.1.

In the case of UAACAGGGGGCCACAGCAGAAGCGUUCACGUCGCAGCCCCUGCCAGAUUCUGGUGAAUCUGCGAACUCUGCCGUAUAUCUC, the self-cleavage was determined as 0.18. On to UAACAGGGGGCCACAGCAGAAGCGUUCACGUCGCAGCCCCUGCCAGAUUCUGGCGAAUCUGCGAAUUCUGCUGUAUACCCC, for which the self-cleavage was determined as 0.31. As for UAACAGGGGGCCACAGCAGAAGCGUUCACGUCGCAGCCCCUGUGAGAUUCCGGUGAAUCUGCGAACUCUGCUGUAUUUCCC, the self-cleavage was 0.06. Turning to UAACAGGGGGCCACAGCAGAAGCGUUCACGUCGCAGCCCCUGCCAGAUUCUGGUGAAUCUGCGAAUUCAGCUGUGUAUCUC, the self-cleavage was determined as 0.22. For UAACAGGGGGCCACAGCAGAAGCGUUCACGUCGCAGCCCCUGCCAGAUUCUGGUGAAUCAGCGAAUUCUGCUGUAUAUCCC, the self-cleavage was determined as 0.15.
